Among the data in the supplement of paper PMC10126150 are switch fluorescence ratio values, retold here.

Sequences with one replicate were seen in a single cluster, so their values are uncertain.

This series concerns ATP. As to the kind of experiment: switch fluorescence ratio, 500 uM ATP over buffer (Cy3 cluster intensity, sum of 5 cycles each) (fold (ratio)); higher = stronger signal-on switching upon ATP binding; sequences stand for … in TCGTCGGCAGCGTCAGATGTGTATAAGAGACAGTTTTTTTTTTTTTTTTTTTTTTTTT…TC. Particulars: aptamer strand: ATP DNA aptamer (quencher-CACCTGGGGGAGTATTGCGGAGGAAGG + anchor), 100 nM annealed; ATP concentration: 500 uM; one replicate. The gist of the method:
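Exposure to 500 uM ATP lasted 15 min at 22 °C before imaging, and a selection-buffer image was taken beforehand, for Cy3-labelled switching-strand clusters on a modified Illumina MiSeq flow-cell annealed to 100 nM quencher-labelled ATP aptamer. Five buffer/ATP cycles were run with NaOH stripping and re-annealing between them. The fluorescence ratio per cluster is summed target-cycle over summed buffer-cycle Cy3 intensity, averaged per switch-domain sequence. Clusters outside 100-1000 RFU were excluded.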
Take AATTATTCCG: the switch fluorescence ratio was 1.02.

As for ACACAGCTA, the switch fluorescence ratio turned out to be 1.25.

In the case of TCTTATCCGT, the switch fluorescence ratio amounted to 0.978.

As to CGTACTGGTT, the switch fluorescence ratio was determined as 0.992.

Take GTGACAGACA: the switch fluorescence ratio worked out at 1.03.

For the sequence CTGAGGCCTA, the switch fluorescence ratio was 1.07.

For the sequence TGCACGAAGT, the switch fluorescence ratio was 1.02.

Take GGAAGCAAGG: the switch fluorescence ratio turned out to be 2.27.

With TACATTCTT, the switch fluorescence ratio is 1.01.

For the sequence AAGCTCCTGC, the switch fluorescence ratio is 0.987.

As for GGTTCAGGTC, the switch fluorescence ratio came out at 0.992.

Turning to CTCCACTAGA, the switch fluorescence ratio is 1.18.

In the case of GTGTTTAAGG, the switch fluorescence ratio stood at 1.01.

In the case of ACGGCTAAAA, the switch fluorescence ratio worked out at 0.976.

As to CGTATCCAGG, the switch fluorescence ratio came to 1.2.

For GCTAGAGTTT, the switch fluorescence ratio came out at 1.02.

Turning to TATTCGCACG, the switch fluorescence ratio is 1.03.

On to GATATAGCTT, for which the switch fluorescence ratio is 1.02.

CCGGTTGGCA: the switch fluorescence ratio was found to be 1.87.

As for ACACGTTCAT, the switch fluorescence ratio came to 1.03.

GCGAGCTAGA: the switch fluorescence ratio came out at 0.986.

For the sequence ATAATCTACG, the switch fluorescence ratio is 1.05.

Take GTATAGGGCG: the switch fluorescence ratio was found to be 0.958.

For CAAATCTACC, the switch fluorescence ratio stood at 1.18.

In the case of GGAGAAATTG, the switch fluorescence ratio is 1.03.

TTTCGGTATC: the switch fluorescence ratio was 0.969.

Consider CTCATCGGG, for which the switch fluorescence ratio worked out at 1.04.

Regarding ATAGATTTGG, the switch fluorescence ratio is 0.997.

GCATTCACTC: the switch fluorescence ratio amounted to 1.44.

For CTACCAAGTG, the switch fluorescence ratio was determined as 1.04.

For the sequence TAGGGTACAA, the switch fluorescence ratio worked out at 1.04.

For the sequence GTCAATGTGT, the switch fluorescence ratio stood at 0.978.

Turning to AAGCTCACTC, the switch fluorescence ratio worked out at 1.13.

In the case of ATCAGACCA, the switch fluorescence ratio worked out at 0.964.

For GGCATAAAAA, the switch fluorescence ratio stood at 0.994.

ATGGTTACAG: the switch fluorescence ratio stood at 1.

In the case of TAAACGTACG, the switch fluorescence ratio is 1.41.

On to ATATCGGTAC, for which the switch fluorescence ratio worked out at 1.07.

Consider TGTCTTCTTA, for which the switch fluorescence ratio was found to be 0.958.

With GCGACGATTA, the switch fluorescence ratio was found to be 1.2.

In the case of CAGGCAATCA, the switch fluorescence ratio came out at 1.17.

Regarding CTTGTCTACA, the switch fluorescence ratio is 1.

CCCCGGGGGA: the switch fluorescence ratio amounted to 1.05.

For the sequence CCTCAATGTG, the switch fluorescence ratio came to 1.24.

Take TAGCATCGAC: the switch fluorescence ratio was found to be 1.26.

Consider AAATGTCATG, for which the switch fluorescence ratio was 0.969.

For the sequence AGAATTTAG, the switch fluorescence ratio was found to be 1.03.

With GTGTTAAAAG, the switch fluorescence ratio was determined as 1.

On to ATTTAGAACT, for which the switch fluorescence ratio is 0.965.

Regarding TATATTTATC, the switch fluorescence ratio is 0.953.

With TCCGCTGATG, the switch fluorescence ratio turned out to be 1.63.

With TTCATTTACC, the switch fluorescence ratio turned out to be 0.978.

On to ATAACAGGGG, for which the switch fluorescence ratio amounted to 1.23.

On to ATAAGCCTCT, for which the switch fluorescence ratio stood at 0.975.

On to CTATGAAGCG, for which the switch fluorescence ratio is 0.982.

As for TTGATTCACA, the switch fluorescence ratio is 1.02.

With AGTGGTTAGG, the switch fluorescence ratio amounted to 0.974.

Consider GCCTCTTCAT, for which the switch fluorescence ratio turned out to be 0.996.

For GGGCCAAGCG, the switch fluorescence ratio was 0.972.

Consider ATTCTTTGTA, for which the switch fluorescence ratio is 0.986.

As to GATTTAGCGA, the switch fluorescence ratio stood at 1.02.

For GATCTATTCT, the switch fluorescence ratio came to 0.968.

Regarding ATGAATGATC, the switch fluorescence ratio is 0.998.

With TCTTTATGCA, the switch fluorescence ratio amounted to 1.13.

TGCACGTCGC: the switch fluorescence ratio stood at 1.09.

Take AAACATAGGC: the switch fluorescence ratio amounted to 1.05.

As for CTTCGTCTAC, the switch fluorescence ratio amounted to 4.67.

GGGAGTGATA: the switch fluorescence ratio was 1.

AGTAACGGG: the switch fluorescence ratio turned out to be 0.992.

As to ATTACCTTTC, the switch fluorescence ratio was 2.23.

For CTTTGCTGGT, the switch fluorescence ratio was 0.988.

On to ACATACTCAC, for which the switch fluorescence ratio is 1.37.

For AAGGAAAGA, the switch fluorescence ratio turned out to be 1.03.

TGCACTAGC: the switch fluorescence ratio turned out to be 1.01.

Regarding ACGAGGACGA, the switch fluorescence ratio was determined as 1.07.

On to ACGTCCGAAG, for which the switch fluorescence ratio was 1.63.

Regarding CCACGGGAAT, the switch fluorescence ratio stood at 1.05.

With GGCATAGG, the switch fluorescence ratio came out at 1.06.

Take ACGTGTTAAC: the switch fluorescence ratio is 1.05.

As for AGGTGAAGCA, the switch fluorescence ratio was 1.01.

Turning to AGGTTCGAGT, the switch fluorescence ratio was 0.943.

On to GGACGGATTC, for which the switch fluorescence ratio was 1.03.

In the case of ACGCCGGGA, the switch fluorescence ratio worked out at 1.02.

As for TTCATGCAGT, the switch fluorescence ratio amounted to 1.01.

AACCTAGAGG: the switch fluorescence ratio is 0.986.

For CTTGTTTTCT, the switch fluorescence ratio came out at 1.02.

In the case of TCGTGCCGAT, the switch fluorescence ratio amounted to 1.

On to TGAAGCACGG, for which the switch fluorescence ratio worked out at 1.2.

For CCTATGTGTC, the switch fluorescence ratio was 1.06.

ACGATTCTGG: the switch fluorescence ratio stood at 1.02.

GTAGGGTTTC: the switch fluorescence ratio turned out to be 0.978.

With GTGTGGGCCT, the switch fluorescence ratio worked out at 1.04.

On to GACTTATTAA, for which the switch fluorescence ratio is 1.03.

Consider CCTGCGGGAT, for which the switch fluorescence ratio was determined as 0.937.

As for TCATTTTCGA, the switch fluorescence ratio is 0.979.

Regarding CGATAAAGCC, the switch fluorescence ratio was determined as 1.05.

Turning to TATAGCCTTT, the switch fluorescence ratio is 1.02.

GTGAGATCTA: the switch fluorescence ratio was 0.991.

As to TACGCCCCAG, the switch fluorescence ratio was 1.08.

GCTCCAAGGT: the switch fluorescence ratio was 1.27.

Take ATCGGTCCTG: the switch fluorescence ratio came to 1.01.

For the sequence GGTACATGAG, the switch fluorescence ratio worked out at 1.04.

For the sequence GCTGGTTGCA, the switch fluorescence ratio was 1.04.

Take TGCCAGAGTA: the switch fluorescence ratio was found to be 1.01.

In the case of GGTAGAATGT, the switch fluorescence ratio is 0.989.

In the case of GACTTGTTTT, the switch fluorescence ratio stood at 1.

On to CAACCCTGG, for which the switch fluorescence ratio worked out at 1.02.

Consider AGGGTTAAAG, for which the switch fluorescence ratio was found to be 1.01.

As to AGTGGTTTCA, the switch fluorescence ratio turned out to be 1.01.

Take TTGCAATTGT: the switch fluorescence ratio was 1.01.

As for GTGTGTGGAG, the switch fluorescence ratio came out at 1.01.

CCGGGTCGCC: the switch fluorescence ratio was 1.01.

Consider CTACCGCCGG, for which the switch fluorescence ratio came to 1.07.

Take CACATAGGGC: the switch fluorescence ratio turned out to be 1.02.

Consider CGTTGTTAAT, for which the switch fluorescence ratio was determined as 1.

In the case of GCAAAGATCA, the switch fluorescence ratio worked out at 1.02.

With TAATGGCCT, the switch fluorescence ratio came to 1.01.

For the sequence TCATCCACTT, the switch fluorescence ratio turned out to be 1.11.

With AAATAAAGAG, the switch fluorescence ratio amounted to 1.

As to CGTATCCACG, the switch fluorescence ratio amounted to 1.05.
